Measurements from patent US20130064788A1 (ELEVEN BIOTHERAPEUTICS, published 2013).

T1: IL-17RC extracellular domain (human, UniProt Q8NAC3 21-538)
T1 construct: Expressed in 293S GnTI- cells with and without a C-terminal BirA tag; An additional C-terminal Fc tag was cleaved by 3C protease
T1 sequence: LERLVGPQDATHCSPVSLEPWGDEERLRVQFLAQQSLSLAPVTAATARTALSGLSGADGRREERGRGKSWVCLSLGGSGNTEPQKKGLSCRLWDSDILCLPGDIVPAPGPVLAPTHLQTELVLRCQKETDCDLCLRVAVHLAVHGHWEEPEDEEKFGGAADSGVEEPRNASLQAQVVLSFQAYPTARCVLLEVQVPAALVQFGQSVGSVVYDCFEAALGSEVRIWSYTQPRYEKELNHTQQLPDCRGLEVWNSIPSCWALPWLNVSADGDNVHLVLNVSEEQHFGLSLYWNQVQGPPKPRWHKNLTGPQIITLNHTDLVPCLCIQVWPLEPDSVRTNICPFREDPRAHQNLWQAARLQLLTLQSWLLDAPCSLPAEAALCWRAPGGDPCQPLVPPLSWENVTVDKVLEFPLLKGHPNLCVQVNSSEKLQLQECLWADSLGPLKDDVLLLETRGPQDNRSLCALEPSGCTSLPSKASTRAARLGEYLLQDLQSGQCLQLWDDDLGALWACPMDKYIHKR

T2: pre-assembled IL-17RB-IL-25 complex (IL-25 captured by immobilised IL-17RB) (human, UniProt Q9NRM6 18-292; Q9H293 33-177, C-terminal biotin on BirA tag)
T2 construct: One receptor and one IL-25 dimer on the SPR chip
T2 sequence 1: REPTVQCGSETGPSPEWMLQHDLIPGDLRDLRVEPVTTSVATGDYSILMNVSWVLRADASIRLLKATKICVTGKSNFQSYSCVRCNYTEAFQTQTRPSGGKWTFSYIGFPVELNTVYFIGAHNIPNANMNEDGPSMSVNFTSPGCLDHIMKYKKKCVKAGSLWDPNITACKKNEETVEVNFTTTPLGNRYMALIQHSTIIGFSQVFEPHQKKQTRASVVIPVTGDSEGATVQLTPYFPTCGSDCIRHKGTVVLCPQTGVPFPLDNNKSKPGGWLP
T2 sequence 2: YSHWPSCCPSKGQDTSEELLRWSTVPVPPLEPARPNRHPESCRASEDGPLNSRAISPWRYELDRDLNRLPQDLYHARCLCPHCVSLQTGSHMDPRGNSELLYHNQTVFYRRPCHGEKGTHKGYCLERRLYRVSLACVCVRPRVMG

T3: pre-assembled IL-17RA-IL-17A complex (IL-17A captured by immobilised IL-17RA) (human, UniProt Q96F46 32-317; Q16552 25-155, C-terminal biotin on BirA tag)
T3 construct: For tags see m1 and m3
T3 sequence 1: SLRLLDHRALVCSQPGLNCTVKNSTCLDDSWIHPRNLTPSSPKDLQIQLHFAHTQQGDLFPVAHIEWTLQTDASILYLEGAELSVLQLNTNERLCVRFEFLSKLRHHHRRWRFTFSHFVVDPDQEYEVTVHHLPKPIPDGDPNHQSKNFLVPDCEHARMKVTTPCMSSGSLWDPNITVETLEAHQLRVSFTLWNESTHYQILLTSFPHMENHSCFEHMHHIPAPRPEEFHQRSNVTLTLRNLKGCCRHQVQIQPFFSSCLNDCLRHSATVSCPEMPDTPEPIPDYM
T3 sequence 2: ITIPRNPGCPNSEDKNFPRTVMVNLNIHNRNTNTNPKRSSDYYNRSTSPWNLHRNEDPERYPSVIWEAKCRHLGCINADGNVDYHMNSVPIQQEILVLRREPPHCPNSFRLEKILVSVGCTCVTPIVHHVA

T4: pre-assembled IL-17RC-IL-17A complex (IL-17A captured by immobilised IL-17RC) (human, UniProt Q8NAC3 21-538; Q16552 25-155, C-terminal biotin on BirA tag)
T4 construct: One receptor and one IL-17A dimer on the SPR chip; also called existing IL-17RC-IL-17A complex
T4 sequence 1: T1 sequence
T4 sequence 2: T3 sequence 2

B1: IL-17A homodimer (ligand)
chain: not shown
notes: Expressed by High Five cells with a C-terminal hexa-His tag; also called IL-17A/A; not shown: C-terminal hexa-His tag
B2: human IL-17RA extracellular domain (ECD) (receptor)
chain: not shown
notes: For SPR it was made with and without a C-terminal BirA ligase tag: the biotinylated form was immobilised and the other was injected; For the crystal it was treated with endoglycosidase H and lysine-methylated; also called IL-17RA ECD; IL-17RA ectodomain

Assays:
[1] = target: B2; test: SPR, comparison of the two KD values
Procedure: (§1) Binding affinities were calculated via surface plasmon resonance (SPR) on a BIACORE® T100 (GE Healthcare). C-terminally biotinylated IL-17 receptors were coupled to immobilized streptavidin on either an SA or CM4-sensor chip (GE Healthcare). An irrelevant, biotinylated protein was captured at equivalent immobilization densities to control flow cells. To measure the second receptor binding interaction, the cytokine was first captured to the immobilized receptor, followed by the second receptor injection. Low coupling densities (200-400 RU) and excess cytokine concentrations were used to optimize the number of cytokine homodimers bound to a single receptor. The surface was regenerated using 3 M MgCl₂ between each cycle. For kinetic experiments, a flow rate of 50 μl/min was used. Data was analyzed using BIACORE® T100 evaluation software Version 2.0 (GE Healthcare). Affinities are reported as the mean of at least two independent experiments±the standard error of the mean (s.e.m.).

[2] = target: B2; test: SPR, Biacore T100; biotinylated receptor on streptavidin chip, cytokine injected
Description: (§2) Whilst others have reported the binding affinities of IL-17RA and IL-17RC for IL-17A and IL-17F (7, 22), we considered it pertinent to assess the binding affinity of the second receptor-binding site. The strategy was to immobilize one receptor on the SPR chip at a low coupling density in order to minimize possible homo-dimerization (e.g. cross-linking) of the receptors on the chip. The dimeric IL-17 cytokine was then captured by this receptor so that each receptor would be bound to one dimeric IL-17 ligand, leaving an exposed and accessible second receptor-binding site. The second receptor was subsequently passed over the preformed receptor-cytokine complexes to measure the affinity of the second receptor-binding event. In this fashion, the complex was assembled in a stepwise manner and each of the binding affinities was measured (FIG. 3).
(§3) Binding affinities were calculated via surface plasmon resonance (SPR) on a BIACORE® T100 (GE Healthcare). C-terminally biotinylated IL-17 receptors were coupled to immobilized streptavidin on either an SA or CM4-sensor chip (GE Healthcare). An irrelevant, biotinylated protein was captured at equivalent immobilization densities to control flow cells. […] Data was analyzed using BIACORE® T100 evaluation software Version 2.0 (GE Healthcare). […]

[3] = target: T1, IL-17RC extracellular domain; test: as above
Description: as §2, §3

[4] = target: T2, pre-assembled IL-17RB-IL-25 complex …; test: SPR; second receptor injected over IL-25 captured by immobilised IL-17RB
Procedure: IL-17RA has been implicated in IL-17E (also known as IL-25) signaling together with IL-17RB (23). IL-25 promotes Th2 inflammatory responses and shares approximately ˜20% identity with IL-17A and IL-17F. […] We hypothesized that IL-17RA may only bind IL-25 once IL-25 is captured by IL-17RB. To test this hypothesis, we immobilized IL-17RB on an SPR chip, captured IL-25 and measured the affinity of IL-17RA for the IL-17RB-IL-25 complex. […] At concentrations up to 50 μM, no interaction could be observed between IL-17RA and IL-25, or between the IL-17RB-IL-25 complex and a second IL-17RB molecule.
as §1, with “The surface was regenerated using 3 M MgCl₂ between each cycle. For kinetic experiments, a flow rate of 50 μl/min was used.” left out, “Affinities are reported as the mean of at least two independent experiments±the standard error of the mean (s.e.m.).” left out

[5] = target: T3, pre-assembled IL-17RA-IL-17A complex …; test: SPR; second receptor injected over IL-17A captured by immobilised IL-17RA
Description: as §2, §3

[6] = target: T4, pre-assembled IL-17RC-IL-17A complex …; test: SPR; second receptor injected over IL-17A captured by immobilised IL-17RC
Description: as §2, §3

Row | fold higher affinity than IL-17F [1] [fold] | Kd [2] [µM] | Kd [3] [µM] | Kd [4] [µM] | Kd [5] [µM] | Kd [6] [µM] | Binder
1 | ~100 | 0.0028 | 0.0012 | – | – | – | B1
2 | – | – | – | 14.1 | 3.1 | 0.162 | B2
